Data as given in PubChem BioAssay AID1347417 (National Center for Advancing Translational Sciences (NCATS), 2020).
Hit rate of the full screen: of about 120,000 compounds, about 5,300 (4.4%) were called active. The shares of active, inactive and inconclusive entries below differ from those in the screen. The call rests on the fitted dose curve; in most records, active means well fitted inhibition curve with a large enough effect; inconclusive means small, poorly fitted or top-dose-only effect; inactive means no such curve, though single readings can be large or run the other way. Potencies of inconclusive entries are doubtful fits and often do not repeat.

Assay: qHTS Primary assay for Inhibitors of Plasmodium falciparum Dd2 growth in vitro; further: nearly all actives have a fitted effect of over 65% in size;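 on activity, negative = inhibition: plate controls were DMSO vehicle for no effect and reference drug for full effect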
Details: P. falciparum Dd2 growth, SYBR Green, 72 h; activity, negative = inhibition: at 28.9 µM (top of the series) unless noted; series mostly up to 28.9 µM
Outline: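 Readout: SYBR Green fluorescence, 485 nm excitation, 535 nm emission, after ~16 h lysis at 37C. Before that, Dd2-infected red cells (2.5% hematocrit) grew 72 h with compound, 29 uM top final concentration.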
Potency means the concentration at half of the fitted maximal effect; tags describe the fitted curve by direction and shape.

| Compound | Potency | activity, negative = inhibition | outcome |
| --- | --- | --- | --- |
| O=C(Nc1cccc(C(F)(F)F)c1)c1nc2c(o1)CCN(Cc1cccc(F)c1)CC2 | inconclusive: 0.631 µM [inhibitor, full curve, poor fit] |  |  |
| C[S+](=O)([O-])CCn1ncc2cc(OCC3CCN(c4ncccn4)CC3)ccc21 | inconclusive: 11.2 µM [inhibitor, single point] |  |  |
| O=C(c1ccccc1F)N1CCN(C(=O)N2CC3CC(C2)[C@H]2CCCC(=O)N2C3)CC1 (stereo partly drawn) |  | inactive: -7.09% |  |
| Clc1cccc(N2CCN(c3ncnc4c3nc3n4CCCC3)CC2)c1 | inconclusive: 20 µM [inhibitor, partial curve, poor fit] |  |  |
| Brc1ccc(CNCCCSc2nnnn2-c2ccccc2)cc1 | inconclusive: 17.8 µM [inhibitor, single point] |  |  |
| COc1cccc(CN2CCc3nnc([C@@H]4C[C@@H](O)CN4C)n3CC2)c1 |  | inactive: -23.6% |  |
| CCNC(=O)N1CCCC(Cn2c(C3CC3)nc3cccnc32)C1 (stereo not drawn) |  | inactive: -17% |  |
| Cn1cc(S(=O)(=O)N2CCCCCC2)cc1C(=O)NCc1ccc(Cl)cc1 | inconclusive: 17.8 µM [inhibitor, single point] |  |  |
| O=C(Cc1ccc(F)cc1)N1CCC[C@H]1c1nc(-c2ccccc2)no1 | inconclusive: 10 µM [inhibitor, single point] |  |  |
| CCn1c(C2CCCNC2)nn(Cc2ccc(C(C)C)cc2)c1=O (stereo not drawn) |  | inactive: -24.5% |  |
| Cc1cc(C)c(NC(=O)Cn2c(=O)n(CCc3ccccc3)c(=O)c3ccccc32)c(C)c1 |  | inactive: 31.3% |  |
| COc1ccc(OC)c(CNC(=O)c2ccccc2NC(=O)c2nsc3ccccc23)c1 | inconclusive: 10 µM [inhibitor, partial curve, poor fit] |  |  |
| CCOc1ccccc1C(=O)N1CCN(CCc2ccccn2)CC1 | active: 3.98 µM |  |  |
| Cc1ccc(C2=Nc3ccccc3N(CC(=O)Nc3ccccc3C)C(=O)C2)cc1C | inconclusive: 11.2 µM [inhibitor, single point] |  |  |
| O=C(Nc1cccc(Br)c1)Nc1nc2c(s1)CCCCCC2 | inconclusive: 8.91 µM [inhibitor, partial curve, poor fit] |  |  |
| Cc1ccc(S(=O)(=O)NCCn2c(C)cnc2C2CCC2)c(C)c1 | inconclusive: 11.2 µM [inhibitor, single point] |  |  |
| O=C(NCCc1c[nH]c2ccc(Cl)cc12)C1CC(=O)N(c2n[nH]c3ccccc23)C1 (stereo not drawn) |  | inactive: -1.03% |  |
| CNC(=O)[C@@H]1CN(C(=O)c2ccoc2)C[C@H]1CO |  | inactive: -2.46% |  |
| COc1cc2c(C(=O)N3CCN(c4cccc(Cl)c4)CC3)cn(C)c(=O)c2cc1OC | inconclusive: 10 µM [inhibitor, single point] |  |  |
| CC(C)C(=O)Nc1ccccc1C(=O)OCc1cc(=O)n2nc(C3CC3)sc2n1 | inconclusive: 7.08 µM [inhibitor, partial curve, poor fit] |  |  |
| COc1cccc(C(=O)N2CCC(Oc3ncccc3C(=O)N3CCCCC3)C2)c1 (stereo not drawn) |  | inactive: -0.7% |  |
| CN(Cc1cccnc1)c1nc2c(c(=O)[nH]1)CCN(Cc1cccnc1)CC2 |  | inactive: -14% [at 5.79 µM] |  |

| Compound | Potency | activity, negative = inhibition | outcome |
| --- | --- | --- | --- |
| O=C(NCc1cc2n(n1)CCN(C1CCCCC1)C2)c1noc2c1CCCC2 | inconclusive: 11.2 µM [inhibitor, single point] |  |  |
| Cn1cc(CN2CCN(c3ccc(C#N)cn3)CC2)c(-c2ccccc2)n1 | inconclusive: 10 µM [inhibitor, single point] |  |  |
| COc1ccc(CN(C)C2CCc3ccccc32)cc1 (stereo not drawn) | inconclusive: 1.26 µM [inhibitor, full curve, poor fit] |  |  |
| CC(C)N1CCC2(CC1)CN(C(=O)Cc1cccc(F)c1)Cc1ccccc1O2 | inconclusive: 0.282 µM [inhibitor, full curve, poor fit] |  |  |
| CSCC(=O)N1CCCC(CCc2cccc(F)c2)C1 (stereo not drawn) |  | inactive: -20.4% |  |
| C1CNCC(c2nc(CCOCC3CC3)no2)C1 (stereo not drawn) | inconclusive: 2.82 µM [inhibitor, partial curve] |  |  |
| Cc1cccc(OCCn2c(SCC(N)=O)nc3ccccc32)c1 | inconclusive: 10 µM [inhibitor, single point] |  |  |
| CN(C)c1nccnc1OC1CCN(C(=O)c2ccn[nH]2)C1 (stereo not drawn) |  | inactive: -12.2% |  |
| COc1ccc(-c2nc3ccccc3n2Cc2ccc(C(C)C)cc2)cc1 | inconclusive: 17.8 µM [inhibitor, single point] |  |  |
| O=C(CCc1nc2ccc(Cl)cc2[nH]1)NCCc1noc(-c2cccnc2)n1 |  |  | inactive |
| CCOc1ccc(NC(=O)Cn2cc(C(=O)c3ccc(F)cc3)c(=O)c3cc4c(cc32)OCO4)cc1 | inconclusive: 3.55 µM [inhibitor, single point] |  |  |
| CN1C[C@@H]2CCCN3CCC[C@@H]([C@H]23)[C@H]1CCCC(=O)NCC1CC1 |  | inactive: -4.71% |  |
| Cn1ncc2c(C(=O)NCc3cccnc3)cc(C(C)(C)C)nc21 | inconclusive: 8.91 µM [inhibitor, partial curve, poor fit] |  |  |
| COc1cccc(CCNC(=O)c2ccc(Cn3c(SCc4ccccc4)nc4cccnc43)cc2)c1 | inconclusive: 10 µM [inhibitor, single point] |  |  |
| CCOc1ccc(NC(=O)NC(C)c2c(-n3cccc3)sc3c2CCN(CC)C3)cc1 (stereo not drawn) | inconclusive: 10 µM [inhibitor, single point] |  |  |
| COCc1cc(=O)n(CC(=O)Nc2ccc(C(C)C)cc2)c(N2CCOCC2)n1 | inconclusive: 8.91 µM [inhibitor, single point] |  |  |
| O=C(Nc1ccc2nc(SCCOc3ccccc3)sc2c1)c1ccco1 | active: 4.47 µM |  |  |
| COc1ccc(N2CCN(c3cc(C4CC(N)C4)nc(N)n3)CC2(C)C)cc1 (stereo not drawn) | inconclusive: 0.178 µM [inhibitor, full curve, poor fit] |  |  |
| Cc1ccccc1N(C)C1CN([S+](=O)([O-])c2cccc(C(F)(F)F)c2)C1 | inconclusive: 7.08 µM [inhibitor, partial curve] |  |  |
| O=C1NC(=NC2CCCC2)C2(CCCN([S+](=O)([O-])c3cccs3)C2)N1c1cc(F)cc(F)c1 (stereo not drawn) | inconclusive: 1.58 µM [inhibitor, partial curve, poor fit] |  |  |
| CCNc1ncc(CN2CCN(c3cccc(C(F)(F)F)c3)CC2)cn1 | active: 11.2 µM |  |  |
